Data from PubChem BioAssay AID743279 (National Center for Advancing Translational Sciences (NCATS), 2014).
Hit rate of the full screen: of about 360,000 compounds, about 17,000 (4.7%) were called active. This list was built around the results that the source calls inconclusive (neither active nor inactive); the mix of calls is not that of the screen. Cut-off read from the data, not from the text of the source: active = activity change below about -50%; inconclusive = mostly about -30% to -49%; inactive = weaker than that.

Assay: qHTS for Inhibitors of Inflammasome Signaling: IL-1-beta AlphaLISA Primary Screen
Details: THP-1 LPS/ATP IL-1B secretion, 16 h; at 57.5 µM, hits give low values
Method in brief: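 THP-1 cells pretreated 1 hr with compounds (up to 57.5 uM final), then stimulated with LPS (250 ng/mL final) plus ATP (1.25 mM final); secreted IL-1B measured by AlphaLISA after 16 hr, decreased signal indicating inhibition.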
% is set by controls: 0 for no effect and ±100 for the full control effect.

SMILES	activity change
Cc1cc(C)n(C(C[N+](=O)[O-])c2ccc(Cl)cc2)n1 (stereo not given)	inconclusive: -45.4%
O=C(Nc1ccc(F)cc1)N1CCN(c2nc3ccccc3s2)CC1	active: -53.3%
COc1cc2c(cc1OC)CN(C(=O)c1cccc(S(=O)(=O)N3CCc4ccccc43)c1)CC2	inconclusive: -34.8%
CC(C)c1ccc(NC(=O)C2Cc3c(-c4ccc(Cl)cc4)ccnc3O2)cc1 (stereo not given)	inconclusive: -42.6%
CCOC1(c2ccccc2)CC1C(=O)N/N=C/c1cccc([N+](=O)[O-])c1 (stereo not given)	inconclusive: -32.3%
CN(C)CCN=Cc1c(O)n(Cc2ccc3c(c2)OCO3)c(=O)c2ccccc12	active: -53.4%
CC(C)C(=O)N1CCN(c2ccc([N+](=O)[O-])c(NC(C)c3ccccc3)c2)CC1 (stereo not given)	active: -63.8%
CC(=O)C(N=Nc1ccccc1)(Sc1nnc(-c2ccccc2)n1-c1ccccc1)C(=O)Nc1ccccc1 (stereo not given)	inactive: -1.83%
CCOP(=O)(OCC)C(Nc1cc(Cl)cc(Cl)c1)c1cccc(O)c1 (stereo not given)	inconclusive: -42.4%
COc1ncnc2c1ncn2CCCN1CCN(Cc2ccc(C)cc2)CC1	inactive: 38.2%
CCNC(=O)CC1SC(=Nc2ccc(Cl)cc2)N(CC)C1=O (stereo not given)	inactive: -1.39%
CCOC(=O)c1ccc(N/C=C/C(=O)c2ccco2)cc1	inactive: -13.7%
O=C1Nc2ccc(Br)cc2/C1=C/C(=O)c1ccc2c(c1)OCO2	inconclusive: -45.1%
N#Cc1c(C(F)(F)F)cc(-c2cccs2)nc1SCC(=O)O	inactive: 0%
Cc1ccc(-c2nnc(N(C)C(=O)c3cccnc3)s2)cc1	inconclusive: -30.3%
COc1ccc(C(C(=O)Nc2ccc(F)cc2)N2CCN(c3cccc(C(F)(F)F)n3)CC2)cc1 (stereo not given)	inconclusive: -48.1%
Cc1ccc(-c2nnc(NC3CCCCC3)c3ccccc23)cc1S(=O)(=O)N1CCN(C)CC1	inconclusive: -42.7%
BrC(=C\c1ccccc1)/C=N/Nc1nc(N2CCOCC2)nc(N2CCOCC2)n1	active: -129%
COc1ccc(N(C(=O)CNC(=O)c2ccco2)C(C(=O)NC2CCCCC2)c2ccncc2)cc1 (stereo not given)	inactive: -4.33%
COc1ccc(N(C(=O)/C=C/c2ccccc2)C2=CC3CCC(C2)N3C)cc1 (stereo not given)	inconclusive: -46.4%
CC(C)n1ncc2c(C(=O)N3CCN(Cc4ccc(Br)s4)CC3)cc(C3CC3)nc21	inconclusive: -36.9%
CCOc1cc(C2NC(=O)NC(C)=C2C(=O)OC(C)CC)cc(Br)c1O (stereo not given)	inconclusive: -47%

SMILES	activity change
CCCCN=C1NN=C(c2ccc(C)c(C)c2)CS1	inconclusive: -48.9%
O=C(NCc1ccncc1)C(=O)N/N=C/c1ccc(OCc2ccccc2)cc1	inactive: -3.47%
CC(=O)Nc1ccc(-c2ccnc3c2CC(C(=O)Nc2cccc(Oc4ccccc4)c2)O3)cc1 (stereo not given)	inconclusive: -47.9%
Clc1nc2nc3n(c2nc1Cl)CCC3	inactive: -11.3%
CCN(CC)c1ccc(NC(=S)Nc2ccc(F)cc2)cc1	inconclusive: -44.5%
O=C(NCCN1CCC(n2c(=O)[nH]c3ccccc32)CC1)c1cccc(Cl)c1	inconclusive: -39.4%
CCOC(=S)SCc1cn2ccccc2n1	inconclusive: -47.4%
COc1cc(-c2ccc3oc(-c4ccsc4)cc(=O)c3c2)cc(OC)c1OC	active: -58.1%
CCOc1ncccc1C(=O)Nc1c(C)n(C)n(-c2ccccc2)c1=O	inactive: 5.82%
c1ccc2[nH]c3cc4ncnc4cc3nc2c1	active: -57.3%
O=C1C=C(c2ccc(O)cc2)C[C@@H](c2ccc(Cl)cc2)C1	active: -75.4%
COc1ccc(CSCCNC(=S)Nc2ccccc2)cc1Cl	inconclusive: -30.1%
COc1ccccc1CN(C)C(=O)c1cc(-c2cc(OC)c(OC)c(OC)c2)nc2ccccc12	inconclusive: -41%
Cc1ccc(-n2c(C)cc(/C=C(\C#N)C(=O)NCC3CCCO3)c2C)cc1 (stereo not given)	inconclusive: -30.1%
COc1ccc(OC)c(N(CC(N)=O)S(=O)(=O)c2ccc(OC)c(OC)c2)c1	inactive: 0%
COc1ccc([C@H]2CC(=O)C=C(/C=C/c3ccccc3)C2)cc1	inconclusive: -38.1%
O=C1OC[C@H]2CCCN2C(=O)[C@@H](CC(=O)N(CCO)Cc2ccccc2)C/C=C\CC[C@H]1Cc1ccc(F)cc1	inconclusive: -37.5%
COc1ccc(C2CN=NC2C(=O)c2ccccc2)cc1 (stereo not given)	inactive: -28.6%
C=CCN1C(c2cccc(C(F)(F)F)c2)=CS/C1=C(\C#N)c1nnc(N2CCOCC2)n1-c1ccccc1	inconclusive: -32.3%
COc1ccc(N(C)C(=O)c2ccc3c(Cl)c4c(nc3c2)CCCC4)c(OC)c1	inconclusive: -42.4%
CC1=C(C(N)=O)C(c2cccc(OCc3ccccc3)c2)n2nnnc2N1 (stereo not given)	inconclusive: -45.9%
CS(=O)(=O)N(CC(=O)Nc1ccccc1Sc1ccccc1)C1CCCCC1	inconclusive: -44.3%

SMILES	activity change
O=[N+]([O-])c1c(C(Cl)Cl)nn(-c2ccccc2)c1N1CCOCC1	active: -80.6%
CCN(CC)CCNC(=O)c1ccc(NC(=O)c2cn(-c3ccccc3)nc2-c2cccs2)cc1	inconclusive: -38.3%
CC(=O)N1CCN(c2nc(-c3cccs3)nc3ccccc23)CC1	active: -86.2%
O=C(CN(CC1CCCO1)C(=O)CNS(=O)(=O)c1ccc(F)cc1)NCCc1ccccc1 (stereo not given)	inactive: -7.02%
CCN(CC(=O)Nc1cccc(S(=O)(=O)N2CCCC2)c1)CC(=O)Nc1ccccc1OC	inactive: 0.859%
CC(OC(=O)C1=COCCO1)C(=O)Nc1ncc(Cl)cc1Cl (stereo not given)	inactive: 3.87%
Cn1ccnc1SCc1cn2ccccc2n1	inconclusive: -31.6%
OC[C@@H]1[C@@H](c2ccc(Cl)cc2)C(c2ccccc2)=NN1c1ccccc1	inconclusive: -48.5%
COc1cc(CNC(=O)c2cc(-c3cc(F)ccc3OC(C)C)n[nH]2)cc(OC)c1	inconclusive: -33.6%
O=C(Nc1cccc2cccnc12)c1csc(COCCO)n1	inconclusive: -39.5%
NC(=S)n1[nH]c(-c2ccc([N+](=O)[O-])cc2)c(N=Nc2ccccc2[N+](=O)[O-])c1=O	inactive: 3.88%
CCOC(=O)c1cc(-c2ccc(OC)cc2)n(CCC(=O)NCCN2CCC(C)CC2)c1C	inconclusive: -45.4%
O=C(c1ccc(CS(=O)Cc2ccc(Cl)cc2)o1)N1CCN(c2cccc(Cl)c2)CC1 (stereo not given)	active: -83.4%
CN(Cc1ccccc1)C(=O)c1cccc(NC(=O)Cc2ccc([N+](=O)[O-])cc2)c1	inconclusive: -47.6%
CCNc1ncnc2c1cnn2C1CCCO1 (stereo not given)	inactive: -6.14%
Cc1ccc(C(=O)NCc2ccco2)cc1S(=O)(=O)Nc1cccc(C)c1C	inconclusive: -39.1%
CCOCCCNC(=S)Nc1ccc2nc(N3CCCC3)cc(C)c2c1	inconclusive: -37.5%
Nc1cc(N)nc(SCc2ccc(Cl)cc2)n1	inconclusive: -47.6%
CCOC(=O)Cc1nnc(NC(=O)CCc2ccccc2)s1	inactive: -5.96%
C=CCOC(=O)C1=C(C)NC(SCC(=O)N(CC)CC)=C(C#N)C1c1ccccc1 (stereo not given)	active: -51.5%
CCC(c1nnnn1-c1c(C)cccc1C)N1CCN(c2ccccn2)CC1 (stereo not given)	inactive: 51.6%
COc1ccc(NC(=O)CCCn2c(=O)oc3ccccc32)cc1Cl	inconclusive: -35.3%

SMILES	activity change
O=C(Nc1ccc(Nc2ccccc2)cc1)c1c(Cl)cccc1Cl	active: -87.5%
Cn1c2ccccc2c2cc(C(=O)NNC(=O)CCl)sc21	active: -133%
COC(=O)c1ccccc1S(=O)(=O)N1CCC(C(=O)Nc2ccc(N3CCOCC3)cc2)CC1	inconclusive: -46.5%
CN(c1ccc(C(=O)NCCSCc2c(F)cccc2Cl)cc1)S(C)(=O)=O	inconclusive: -35.2%
CCCOc1ccc(NC(=O)CC2C(=O)N(CC)C(=S)N2CCCN2CCN(Cc3ccccc3)CC2)cc1 (stereo not given)	active: -99.9%
COc1ccc(NC(=O)Nc2nnc([C@@H]3C[C@H](O)[C@@H](CO)O3)s2)cc1	inactive: 39.3%
O=C(Cc1ccc(NC(=O)C2CCN(C(=O)c3ccccc3)CC2)cc1)Nc1cccc(C(=O)N2CCCCC2)c1	inactive: 0.64%
CC(=O)Nc1ccc(S(=O)(=O)NCCSCc2ccc(Cl)cc2Cl)cc1	active: -56.5%
Nc1[nH]c(C(=O)c2ccccc2)c(-c2ccccc2Br)c1C(=O)NCCc1c[nH]c2ccccc12	inconclusive: -31.4%
CCOC(=O)c1cnc(SCc2ccc(C)cc2)nc1N	inactive: -11.9%
C[C@H](CO)N1C[C@H](C)[C@@H](CN(C)C(=O)c2ccccc2)OCc2cnnn2CCCC1=O	inactive: 14.5%
CCCCn1c(N)c(N(CC(C)C)C(=O)CC2CCCC2)c(=O)[nH]c1=O	inactive: -0.44%
Cc1cc(C)cc(N=C2SC(CC(=O)Nc3ccccc3)C(=O)N2CCN2CCOCC2)c1 (stereo not given)	inconclusive: -41.2%
c1ccc(COc2ncnc3c2ncn3CCCNC2CCN(Cc3ccccc3)CC2)cc1	inconclusive: -46.3%
Cc1cc2c(=O)n(C)c(SCC(=O)Nc3cccc(O)c3)nc2s1	inactive: 13.1%
O=S(=O)(Oc1ccc(C(=S)N2CCOCC2)cc1)c1ccc(Cl)cc1	inconclusive: -44.3%
CCc1ccc(NC(=O)Nc2ccncc2)cc1	active: -73.4%
O=C(NCCCN1CCCC1=O)C1CCN(S(=O)(=O)c2ccc(Cl)cc2)CC1	inactive: 6.51%
Cc1ccccc1N1C(=O)c2cccc3c(N(C)CCO)ccc(c23)C1=O	inconclusive: -35.5%
